Source: the supplement of paper PMC9135407
Values joined by “and” are separate entries in the source; they are usually repeats but may differ in a detail not shown here. Identical values can stand only once. Counter-ions that a name gives are not always drawn. Screen size: about 5,800 compounds; about 620 (11%) showed activity.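 Rule for the calls: active = score above a cut-off or among the top three wells of a plate; in these data no inactive exceeds 0.85.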 Only a part is listed here, and it is no random draw.

Test system: primary human hepatic stellate cells (donor 1)
Experiment: scaled lipid accumulation score (0 = DMSO-like, 1 = nortriptyline-like); higher = stronger HSC inactivation (lipid re-accumulation), active = hit call of the paper
Conditions: 48 h
Procedure: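 Primary lipid accumulation screen in primary human hepatic stellate cell myofibroblasts (donor 1, passage 8) in 384-well plates. 100 nL of library compound was pin-transferred into 30 µL medium in duplicate, and cells were treated for 48 h. The 'Scaled' score combines distance from plate baseline, toxicity and reproducibility penalties, and is normalised to nortriptyline (positive) and DMSO (negative) controls on each plate. A hit is defined as scaled >0.85 or among the top 3 wells per plate.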

[1] = library stock concentration: 3.33 mM
[2] = library stock concentration: 10 mM
[3] = library stock concentration: 1 mM
[4] = library stock concentration: 5.3 mM

Q: Which results are given for O=C(Nc1ccccc1Br)N[C@@H]1CCN(c2ccc(C(F)(F)F)cn2)C1?
A: scaled lipid accumulation score [1]: inactive: ≤ 0; scaled lipid accumulation score [2]: inactive: ≤ 0

Q: With O=C(O)c1ccc2c(c1)CCCC2 [5,6,7,8-tetrahydro-2-Naphthoic Acid] as the compound, how does the “scaled lipid accumulation score” value [3] read?
A: inactive: ≤ 0

Q: Which “scaled lipid accumulation score” value [2] does the source give for NC(=O)[C@@H]1CCCN1C(=O)[C@H](Cc1c[nH]cn1)NC(=O)[C@@H]1CCC(=O)N1 here?
A: inactive: ≤ 0

Q: O=C(NOCC(O)CO)c1cc(Br)c(F)c(F)c1Nc1ccc(I)cc1F (centres undefined) was tested. Which “scaled lipid accumulation score” value [1] did it give?
A: inactive: 0.02

Q: And the “scaled lipid accumulation score” value [2]?
A: inactive: ≤ 0

Q: CN(C)CC(c1ccc(O)cc1)C1(O)CCCCC1 (centres undefined) [Desvenlafaxine Succinate] was tested. Which “scaled lipid accumulation score” value [1] did it give?
A: inactive: ≤ 0

Q: And the “scaled lipid accumulation score” value [2]?
A: inactive: ≤ -0.001

Q: For CN(C)CC(c1ccc(O)cc1)C1(O)CCCCC1 (centres undefined), which “scaled lipid accumulation score” value [2] is on record?
A: inactive: ≤ 0

Q: What does the source list for CN(C)CC(c1ccc(O)cc1)C1(O)CCCCC1 (centres undefined) [Desvenlafaxine]?
A: scaled lipid accumulation score [1]: inactive: ≤ 0; scaled lipid accumulation score [2]: inactive: ≤ -0.001

Q: With Fc1ccc([C@@H]2CCNC[C@H]2COc2ccc3c(c2)OCO3)cc1 [Paroxetine HCl] as the compound, how does the “scaled lipid accumulation score” value (library stock concentration: 6.1 mM) read?
A: active: 1.01

Q: With O=[N+]([O-])c1cccc2c[nH]nc12 as the compound, how does the “scaled lipid accumulation score” value [2] read?
A: inactive: ≤ 0

Q: Cl.Fc1ccc([C@@H]2CCNC[C@H]2COc2ccc3c(c2)OCO3)cc1 [Paroxetine Hydrochloride] was tested. Which “scaled lipid accumulation score” value did it give?
A: active: 1.22

Q: Which “scaled lipid accumulation score” value [2] does the source give for CC(C)(C)NCC(O)COc1cccc2[nH]c(=O)[nH]c12 (centres undefined) here?
A: inactive: ≤ -0.047

Q: What does the source list for C#CCC(Cc1cnc2nc(N)nc(N)c2n1)c1ccc(C(=O)N[C@@H](CCC(=O)O)C(=O)O)cc1 (some centres undefined) [Pralatrexate]?
A: scaled lipid accumulation score [1]: inactive: ≤ 0; scaled lipid accumulation score [2]: inactive: ≤ 0

Q: How did the “scaled lipid accumulation score” value [2] turn out when O=C(c1ccccc1)c1ccc2n1CCC2C(=O)O (centres undefined) [Ketorolac tris salt] was run?
A: inactive: ≤ -0.055

Q: For O=C(c1ccccc1)c1ccc2n1CCC2C(=O)O (centres undefined) [Ketorolac], which “scaled lipid accumulation score” value [1] is on record?
A: inactive: ≤ 0

Q: And the “scaled lipid accumulation score” value [2]?
A: inactive: ≤ 0

Q: How did the “scaled lipid accumulation score” value [2] turn out when O=C(c1ccccc1)c1ccc2n1CCC2C(=O)O (centres undefined) was run?
A: inactive: ≤ 0

Q: Which “scaled lipid accumulation score” value [3] does the source give for O=C(c1ccccc1)c1ccc2n1CCC2C(=O)O (centres undefined) [Ketorolac (tromethamine salt)] here?
A: inactive: ≤ 0

Q: Which results are given for O=C(c1ccccc1)c1ccc2n1CCC2C(=O)O (centres undefined) [Ketorolac tromethamine]?
A: scaled lipid accumulation score: inactive: ≤ 0; scaled lipid accumulation score [4]: inactive: ≤ 0; scaled lipid accumulation score [2]: inactive: 0.024

Q: What does the source list for CCOC(=O)[C@@](C)(N)Cc1ccc(O)c(O)c1 [Methyldopate hydrochloride]?
A: scaled lipid accumulation score: inactive: ≤ 0; scaled lipid accumulation score (library stock concentration: 7.3 mM): inactive: ≤ 0

Q: What does the source list for COc1c(N2CCNC(C)C2)c(F)cc2c(=O)c(C(=O)O)cn(C3CC3)c12 (centres undefined) [Gatifloxacin]?
A: scaled lipid accumulation score [4]: inactive: ≤ 0; scaled lipid accumulation score [2]: inactive: ≤ -0.027 and inactive: ≤ 0

Q: CCN(CC)CCCC(C)Nc1nc(C)cc(Nc2ccc3nc(C)cc(N)c3c2)n1 (centres undefined) was tested. Which “scaled lipid accumulation score” value [1] did it give?
A: inactive: ≤ -0.009

Q: What about the “scaled lipid accumulation score” value [2] of the same compound?
A: inactive: 0.217 and inactive: 0.086

Q: OCc1ccccc1O [Salicyl alcohol] was tested. Which “scaled lipid accumulation score” value [2] did it give?
A: inactive: ≤ 0

Q: And the “scaled lipid accumulation score” value (library stock concentration: 16.1 mM)?
A: inactive: ≤ 0

Q: How did the “scaled lipid accumulation score” value [1] turn out when O=c1[nH]cnc2c1ncn2[C@@H]1O[C@H](CO)[C@@H](O)[C@H]1O [Inosine] was run?
A: inactive: ≤ 0

Q: What about the “scaled lipid accumulation score” value [2] of the same compound?
A: inactive: 0.002

Q: For O=c1[nH]cnc2c1ncn2[C@@H]1O[C@H](CO)[C@@H](O)[C@H]1O, which “scaled lipid accumulation score” value [2] is on record?
A: inactive: ≤ 0

Q: For CCOc1ccccc1OC(c1ccccc1)C1CNCCO1 (centres undefined) [Reboxetine mesylate], which “scaled lipid accumulation score” value [1] is on record?
A: inactive: 0.21

Q: What about the “scaled lipid accumulation score” value [2] of the same compound?
A: inactive: 0.519 and inactive: ≤ -0.006

Q: Which “scaled lipid accumulation score” value [2] does the source give for CC(C)Cn1c(=O)n(C)c(=O)c2[nH]cnc21 [3-Isobutyl-1-methylxanthine] here?
A: inactive: ≤ -0.055

Q: Cc1n[nH]c(=O)[nH]c1=O [Azathymine, 6] was tested. Which “scaled lipid accumulation score” value did it give?
A: inactive: ≤ 0

Q: Which results are given for O=C1NC(=O)/C(=C/c2ccc3c(c2)OC(F)(F)O3)S1?
A: scaled lipid accumulation score [3]: inactive: 0.008; scaled lipid accumulation score [1]: inactive: ≤ 0; scaled lipid accumulation score [2]: inactive: ≤ 0 and inactive: 0.01

Q: Which “scaled lipid accumulation score” value [2] does the source give for OC[C@H]1O[C@@H](n2cnc3c(N[C@H]4CCC[C@@H]4O)ncnc32)[C@@H](O)C1O (stereo partly drawn) [Adenosine, N-(2-hydroxycyclopentyl)-, (1S-trans)- [CAS]] here?
A: inactive: ≤ 0

Q: What does the source list for CCCCOc1cc(CC2CNC(=O)N2)ccc1OC (centres undefined)?
A: scaled lipid accumulation score [2]: inactive: 0.187 and inactive: ≤ 0; scaled lipid accumulation score (library stock concentration: 18 mM): inactive: ≤ -0.006

Q: How did the “scaled lipid accumulation score” value (library stock concentration: 3 mM) turn out when COc1cc([C@@H]2c3cc4c(cc3[C@@H](O[C@@H]3O[C@@H]5CO[C@@H](c6cccs6)O[C@H]5[C@H](O)[C@H]3O)[C@H]3COC(=O)[C@H]23)OCO4)cc(OC)c1O [Teniposide] was run?
A: inactive: ≤ 0

Q: What about the “scaled lipid accumulation score” value [1] of the same compound?
A: inactive: 0.159

Q: What about the “scaled lipid accumulation score” value [2] of the same compound?
A: inactive: 0.484 and inactive: 0.087

Q: What does the source list for O=c1ccc2ccccc2o1 [Coumarin]?
A: scaled lipid accumulation score [1]: inactive: ≤ 0; scaled lipid accumulation score [2]: inactive: ≤ 0 and inactive: 0.012

Q: How did the “scaled lipid accumulation score” value [2] turn out when CCc1cc2c(cc1N1CCC(N3CCOCC3)CC1)C(C)(C)c1[nH]c3cc(C#N)ccc3c1C2=O was run?
A: active: 1.17

Q: With COc1cc2c3cc1Oc1c(OC)c(OC)cc4c1[C@@H](Cc1ccc(OC(=O)c5ccc([N+](=O)[O-])cc5)c(c1)Oc1ccc(cc1)C[C@@H]3N(C)CC2)N(C)CC4 [E6 berbamine] as the compound, how does the “scaled lipid accumulation score” value (library stock concentration: 6.6 mM) read?
A: active: 0.933

Q: For CCCCCCCCCCCCCCCCOC[C@H](COP(=O)([O-])OCC[N+](C)(C)C)OC(=O)NC [Methylcarbamyl PAF C-16], which “scaled lipid accumulation score” value [3] is on record?
A: inactive: ≤ 0

Q: For CN(C)CCCN1c2ccccc2Sc2ccc(Cl)cc21, which “scaled lipid accumulation score” value [2] is on record?
A: inactive: 0.711

Q: For CN(C)CCCN1c2ccccc2Sc2ccc(Cl)cc21 [Chlorpromazine], which “scaled lipid accumulation score” value [2] is on record?
A: inactive: 0.466

Q: For CN(C)CCCN1c2ccccc2Sc2ccc(Cl)cc21 [Chlorpromazine hydrochloride], which “scaled lipid accumulation score” value is on record?
A: inactive: 0.717

Q: And the “scaled lipid accumulation score” value [2]?
A: inactive: 0.259

Q: What does the source list for CN(C)CCCN1c2ccccc2Sc2ccc(Cl)cc21 [Chlorpromazine HCl]?
A: scaled lipid accumulation score [1]: inactive: 0.38; scaled lipid accumulation score (library stock concentration: 6.3 mM): inactive: 0.53

Q: How did the “scaled lipid accumulation score” value turn out when CO[C@H]1C[C@H](O[C@H]2[C@H](C)[C@@H](O[C@@H]3O[C@H](C)C[C@H](N(C)C)[C@H]3O)[C@@H](C)C[C@@]3(CO3)C(=O)[C@H](C)[C@@H](O)[C@@H](C)[C@@H](C)OC(=O)[C@@H]2C)O[C@@H](C)[C@@H]1O [Oleandomycin phosphate] was run?
A: inactive: ≤ 0

Q: What about the “scaled lipid accumulation score” value [2] of the same compound?
A: inactive: ≤ 0

Q: What does the source list for O=C(O)[C@H]1O[C@@H](Oc2cc3oc(-c4ccccc4)cc(=O)c3c(O)c2O)[C@H](O)[C@@H](O)[C@@H]1O [Baicalin]?
A: scaled lipid accumulation score [1]: inactive: 0.015; scaled lipid accumulation score [2]: inactive: ≤ 0
